According to PubChem BioAssay (NCI):
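Values below derive from 48-hour exposures of cells grown in 96-well plates, with endpoints linearly interpolated between the two concentrations bracketing the appropriate inhibition level. GI50: concentration for 50% inhibition of growth. TGI is the concentration that stops growth completely.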

System: NCI-H322M lung
Experiment: NCI-60 cell line screen, 48 h

Row | SMILES | GI50 [µM] | TGI [µM]
1 | Cc1cccc2c3c(sc12)C(c1ccc(F)cc1)C(C#N)=C(/N=C/c1ccc(Cl)cc1)O3 (centres undefined) | 0.782 | 35.6
2 | O=C(NNc1nc2cc(F)cc(F)c2n2cccc12)c1ccncn1 | > 30 | > 30
